# Results as given in the supplement of paper PMC12217912.
# This is one part of the list. The full chains were built here from the parent and the listed change. Values near 0.05 are background.
# B1: TEV protease; numbered along this chain (parent)
# chain: MGESLFKGPRDYNPISSSICHLTNESDGHTTSLYGIGFGPFIITNKHLFRRNNGTLVVQSLHGVFKVKDTTTLQQHLVDGRDMIIIRMPKDFPPFPQKLKFREPQREERICLVTTNFQTKSMSSMVSDTSCTFPSGDGIFWKHWIQTKDGQCGSPLVSTRDGFIVGIHSASNFTNTNNYFTSVPKNFMELLTNQEAQQWVSGWRLNADSVLWGGHKVFMVKPEEPFQPVKEATQL
# Variants of: B1
# Experiment: raw area under fraction-flipped curve 0-4 h after induction (AUC4h, not background-subtracted), DNA-recorder readout of cleavage of the substrate (dimensionless); higher = more cleavage of the substrate by the protease variant
# Details: temperature: 34 °C; time window: 0-4 h after rhamnose induction
# Description: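 In vivo DNA recorder in E. coli TOP10(DE3) ΔrhaA at 34 °C. Each TEVp single-site mutant (parent TEVp 0) is paired with a single-site variant of the 7-mer TEVs (canonical ENLYFQ|S). The substrate sits between flexible linkers in a Bxb1-sfGFP-TEVs-SsrA fusion, so cleavage stabilises Bxb1 and speeds flipping of a recombination array, read by NGS. The value is the raw area under the fraction-flipped curve over 0-4 h after rhamnose induction (AUC4h), with ≥20 reads per time point. It is not background-subtracted; inactive controls average about 0.047.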
# 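Note: Bxb1 expression induced with 0.2% (w/v) L-rhamnose at OD600 near 0.5, cultures sampled hourly, flipped fraction per protease–substrate barcode pair counted by paired-end Illumina sequencing.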
Variant,area with substrate CNLYFQS,area with substrate GNLYFQS,area with substrate HNLYFQS,area with substrate KNLYFQS,area with substrate NNLYFQS,area with substrate SNLYFQS,area with substrate TNLYFQS,area with substrate VNLYFQS,area with substrate YNLYFQS,area with substrate PNLYFQS,area with substrate LNLYFQS,area with substrate WNLYFQS,area with substrate FNLYFQS,area with substrate MNLYFQS,area with substrate DNLYFQS,area with substrate INLYFQS,area with substrate RNLYFQS,area with substrate QNLYFQS
L235N,0.0828,0.0633,0.0654,0.0727,0.0672,0.0593,0.061,0.0682,0.0675,–,–,–,–,–,–,–,–,–
L235G,0.066,–,–,–,–,0.0764,–,–,–,0.0683,–,–,–,–,–,–,–,–
L235I,0.07,–,0.076,–,–,0.0545,–,–,–,–,0.0692,0.0191,–,–,–,–,–,–
L235S,0.101,–,0.0652,–,–,0.0561,0.0724,–,0.051,0.0761,–,0.061,0.0657,0.0655,–,–,–,–
D69M,–,0.0623,0.0567,–,–,–,0.0606,–,–,0.0645,0.0465,0.0578,–,0.0633,0.014,0.0357,–,–
G39P,–,0.043,0.0463,–,0.0704,0.0394,0.0408,0.0478,0.0383,0.0354,0.0497,0.027,0.0399,0.0288,0.0438,0.0348,0.0446,–
F41S,–,–,0.0605,0.0534,0.0428,0.0655,0.0521,0.0555,0.0379,0.0525,0.0582,0.0475,0.0632,–,0.0681,0.0613,–,–
F41R,–,–,–,0.0535,0.0628,0.0657,0.0514,0.0542,0.0522,–,0.0486,0.0498,–,0.0476,0.0152,0.0507,0.0405,–
F41C,–,–,–,0.0814,0.0577,–,0.0678,–,0.0619,0.0554,0.072,0.0533,–,0.0741,0.0675,0.0699,0.0586,–
G63V,–,0.0612,0.0602,0.0733,0.0615,0.0651,0.0609,–,0.051,–,0.0749,0.07,0.0556,–,0.0679,0.0762,–,0.0542
V57C,–,0.0732,0.0615,0.0748,–,–,0.0573,0.0349,–,0.0683,0.0672,0.0525,0.0621,–,0.08,0.0631,–,0.0973
V57A,–,–,0.0725,–,0.0622,0.0569,–,–,0.058,0.0737,0.0686,0.0727,–,0.0551,0.0727,–,–,–
V57D,–,0.0608,0.0688,0.0605,–,0.0661,0.0614,–,0.0581,0.0704,0.0462,0.0542,0.0442,0.0408,0.0613,0.0647,–,–
T70M,–,–,0.0634,–,0.0663,–,0.0595,–,–,–,–,0.0674,0.0614,–,0.0763,0.0693,0.0705,–
P225S,0.0899,–,0.107,–,–,0.0538,–,–,0.0586,–,0.0527,–,–,–,–,–,–,–
S60A,–,0.0625,–,0.0903,0.0599,0.0602,0.0646,–,0.061,0.0714,0.0592,0.0735,0.0767,–,0.0795,0.0413,–,–
K7N,–,0.0678,0.055,–,–,0.0457,0.056,0.0689,0.0651,0.0731,0.0604,0.0628,–,–,0.0894,0.0611,–,–

Variant,area with substrate CNLYFQS,area with substrate GNLYFQS,area with substrate HNLYFQS,area with substrate KNLYFQS,area with substrate NNLYFQS,area with substrate SNLYFQS,area with substrate TNLYFQS,area with substrate VNLYFQS,area with substrate YNLYFQS,area with substrate PNLYFQS,area with substrate LNLYFQS,area with substrate WNLYFQS,area with substrate FNLYFQS,area with substrate MNLYFQS,area with substrate DNLYFQS,area with substrate INLYFQS,area with substrate RNLYFQS,area with substrate QNLYFQS
Q227N,0.0583,–,–,0.0665,0.0744,0.0722,0.0653,–,0.0757,0.0662,0.0702,0.0559,–,0.0601,–,0.0635,–,–
Q227F,0.0719,0.0712,–,–,–,–,–,0.036,–,0.0589,0.0646,0.0597,–,–,–,0.0573,–,–
Q227G,0.0555,–,0.056,0.0658,–,0.0496,0.0668,0.084,0.0497,0.0916,–,0.0628,–,–,–,0.0584,–,–
G35C,–,0.0523,0.0442,0.044,–,0.0488,0.0702,–,–,–,0.0559,–,–,–,0.0566,–,–,0.0527
L61S,–,0.0521,–,0.0804,–,–,–,–,–,0.0611,–,–,0.0519,–,0.0788,–,–,–
F65Y,–,0.0741,0.0582,–,–,0.0677,0.0677,–,0.0518,0.0652,–,0.0759,0.0705,–,0.0904,–,–,–
K66C,–,0.0646,–,0.091,–,0.085,0.0298,0.0654,–,0.0791,0.076,0.0618,–,0.0446,0.0741,0.0615,–,–
R50V,–,–,0.0658,0.0777,–,–,0.146,–,0.0584,0.0555,–,0.064,–,0.066,0.0843,–,0.0836,0.0869
R50Q,–,0.0811,0.0609,–,0.0724,0.0736,0.0715,–,0.0554,0.0779,0.0743,0.0684,–,0.0678,0.094,–,–,–
T44V,–,0.046,0.0384,0.062,0.0488,0.057,0.0601,–,–,0.0518,0.0514,0.0548,0.0675,–,0.0551,0.0562,–,–
S26M,–,0.0655,0.0526,0.0608,0.0616,0.061,0.0641,–,0.0531,0.0634,0.0593,0.0568,–,0.0651,0.0657,0.0465,0.0601,–
N53E,–,–,0.0488,0.0686,–,0.0655,0.0947,0.0755,–,0.0624,–,0.0597,–,–,0.0915,0.0877,0.0487,–
E231P,0.0471,–,–,–,0.0639,0.0647,–,–,–,0.0468,0.0622,–,0.0705,–,–,–,0.0697,0.0647
E231L,0.0545,–,0.0657,–,–,0.0684,–,–,–,–,–,0.0747,–,–,–,–,0.0447,–
P14Q,–,0.0697,–,0.0747,0.0655,0.0647,0.0608,–,0.0602,0.0733,0.0642,0.0563,–,0.0537,0.0962,–,0.0692,0.0766
P14V,–,0.0752,0.0613,0.107,0.0631,–,0.0491,–,0.06,0.0624,0.0624,0.0642,0.0684,0.0675,0.0871,0.065,–,–
Y12F,–,0.038,0.0691,0.0619,0.0546,0.0667,0.0531,–,0.0777,0.0626,–,0.0546,0.0405,–,0.0806,0.079,–,–
